The campaign covered roughly 320,000 compounds. About 9,100 (2.8%) were called active. The shares of active, inactive and inconclusive entries below differ from those in the screen. Calls follow the shape of the dose curve; as a rule, active = well fitted activation curve with a large enough effect; inconclusive = small, poorly fitted or top-dose-only effect; inactive = no such curve, though single readings can be large or run the other way. A potency beside an inconclusive call is a rough fit, not a confirmed value.
Assay: qHTS Assay for Rab9 Promoter Activators; also: nearly all actives have a fitted effect of over 60% in size
Conditions: Huh7 Rab9 promoter-luciferase reporter, luminescence, 24 h; series mostly up to 9.22 µM
Text: NIH Chemical Genomics Center [NCGC] NIH Molecular Libraries Probe Production centers Network [MLPCN] MLPCN Grant: MH089537-01 Assay Submitter (PI): Yiannis A. Ioannou NCGC Assay Overview: Niemann Pick Type C (NPC) is a rare neurodegenerative lipidosis that is characterized by lipid storage in the endosomal/lysosomal system. Treatment modalities for this devastating disease are currently non-existent due to the severe obstacles associated with accessing the central nervous system with proteins or genes (Ioannou, 2000). We have developed a new paradigm, termed "Orphan Receptor Bypass Therapy" (ORByT), to address these disorders. This paradigm posits the existence of endogenous "suppressor" proteins whose expression can dramatically improve LSD pathogenesis. The goal is the identification/discovery of small chemical compounds that can modulate the expression of these proteins and provide a new treatment modality for these devastating disorders. One such protein whose overexpression reverses aspects of the NPC phenotype is Rab9. We have developed and optimized a cell based luciferase reporter assay in 1536 well format for the identification of up-regulators of the Rab9 promoter.
The Rab9 promoter is cloned in front of the luciferase reporter gene, therefore […] promoter activation results in luciferase expression. Frozen stock of the Rab9 promoter transfected Huh7 cells were obtained from the laboratory of Dr. Yiannis Ioannou (The Mount Sinai School of Medicine, New York, NY). Cells were propagated and maintained at NCGC in medium containing RPMI-1640 supplemented with 10% FBS, 2mM L-glutamine, and 50ug/ml penicillin/streptomycin. Cells were harvested in and plated for assays in OP-MEM I reduced-serum medium supplemented with 10% FBS. The Amplite luciferase reporter gene assay kit was purchased from ABD Bioquest and prepared/stored according to manufacturers recommendations. qHTS Assay Setup: 1.Dispensed 5ul of Huh7 cells stably expressing Rab9-luciferase at a density of 1500 cells per well 1536-well plates. 2.Incubate cells at 37C, 5% CO2, and 95% humidity for 2 hours. 3.Transferred 23nl per well of compound in DMSO solution. 4.Incubated at 37C, 5% CO2, and 95% humidity for 24 hours. 5.Dispensed 3ul per well of Amplite reagent(ABD Bioquest) per well. 6.Incubate at ambient for 10 minutes. 7.Read using the luminescence protocol on the ViewLux plate reader (Perkin Elmer).
Potency is read from the fitted curve at half-maximal effect; tags tell the direction and shape of the fitted curve.

Potency, inconclusive:
CC1CCCC(C)N1C(=O)C1CC(c2ccc(F)cc2)=NO1 (configuration not stated) 6.31 µM [activator, single point], COc1cc(/C=N/Nc2ccccn2)ccc1O 2.51 µM [activator, single point], O=C(CC1SC(N2CCCC2)=NC1=O)Nc1ccc(C(=O)Nc2ncccc2O)cc1 (configuration not stated) 3.55 µM [activator, partial curve], COc1ccc2cc(CCC(C)=O)ccc2c1 2.82 µM [activator, partial curve], O=C(O)c1ccc(COc2ccc3ccccc3c2)o1 0.794 µM [activator, partial curve], COc1ccc(S(=O)(=O)Nc2ccc(-c3ccc4nnc(C)n4n3)cc2)c(OC)c1 5.62 µM [activator, single point], Clc1ccc(-c2cnc3n2CCC3)cc1 6.31 µM [activator, partial curve], Cc1cc(OCC(=O)N(C)Cc2ccccc2)ccc1Br 6.31 µM [activator, single point], Cc1ccnc(Nc2nc(-c3ccccc3)cs2)c1 5.01 µM [activator, single point], COc1ccc(C(=O)Nc2ccc3ccccc3c2)cc1OC 4.47 µM [activator, single point], CCCCc1ccc(NC(=O)CC(C)C)cc1 3.98 µM [activator, partial curve]

Potency, inactive:
COc1cc(OC)cc(-c2c(-c3cccs3)c3cc(-c4ccc(N(C)C)nc4)ccc3n2C)c1, O=C(N/N=C\c1ccc(F)cc1)c1ccc(Cn2cc(Br)c([N+](=O)[O-])n2)o1, Cc1noc(C)c1COC(=O)CNC(=O)c1cccc(F)c1, COc1ccc(/C=N/NC(=O)c2ccc(C)nc2)cc1O, NS(=O)(=O)c1cc(C(=O)OCC(=O)Nc2ccc3[nH]c(=O)[nH]c3c2)ccc1Cl, Cc1cccc(Nc2nc(-c3ccccc3)c(C(=O)Nc3cccnc3)s2)c1

Potency, active:
Cc1ccc(OCC(=O)c2ccc3c(c2)CCCC3)cc1C 1.12 µM, O=C(/C=C/Nc1ccc(F)cc1F)c1cccs1 2 µM, O=C(Nc1ccc(-c2noc(-c3cccs3)n2)cc1)c1cccnc1 0.447 µM, Cc1ccc(C(=O)Nc2ncccc2S(=O)(=O)c2ccccc2)cc1 2.82 µM, C/C(=N\OCc1cccc(C(=O)O)c1)c1ccc(Cl)cc1 0.0891 µM

Source: PubChem BioAssay AID485297 (National Center for Advancing Translational Sciences (NCATS), 2010)
